# Test results as given in the supplement of paper PMC8728848.
# The list shows a part of the results.
# B1: Cohesin-marm-DC-ASGPR (protein)
# chain: LDITSHHHHHHDDLDAVRIKVDTVNAKPGDTVRIPVRFSGIPSKGIANCDFVYSYDPNVLEIIEIEPGDIIVDPNPDKSFDTAVYPDRKIIVFLFAEDSGTGAYAITKDGVFATIVAKVKEGAPNGLSVIKFVEVGGFANNDLVEQKTQFFDGGVNVGDTTEPATPTTPVTTPTTTDDLDAASSKFQRDLVTLRTDFSNFTSNTLAEIQALTSQGSSLQETIASLKAEVEGHKQELQAGASELQEHNKQKAHLGRCPHTCVCPSSFVCVPVHSEILLRVQQLVQDLNKLSCQVAILKNNATTERTCCPINWVEHQGSCYWFSRSGKTWPEAERYCQLENTHLVVINSREEQNFVQAHLGSAYTWMGLSDPEGVWKWVDGTDYSSGFQNWKPGQPDDWQGHGLGGGEDCAHFHPDGRWNDDVCQRSYHWVCEAGLTQASQDSHAS
# Key:
# Experiment in all cases: glycan array binding signal (z-score within array); higher = stronger binding
# Conditions in all cases: glycan notation: IUPAC condensed, linker removed
# [1] = molecular target: GalNAc3S(b1-4)[Fuc(a1-3)]GlcNAc
# Outline: (§1)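 Columns mapping to the same glycan were averaged after glycan names were converted to IUPAC-condensed notation. The data come from 3228 arrays in the Consortium for Functional Glycomics database, limited to those with an available protein sequence. Binding is reported as a within-array Z-score averaged across arrays of one protein sequence and across linkers.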
# GalNAc4S6S(b1-4)GlcNAc = molecular target: GalNAc4S6S(b1-4)GlcNAc
# Outline: as §1
# GalNAc6S(b1-4)GlcNAc = molecular target: GalNAc6S(b1-4)GlcNAc
# Outline: as §1
# Glc(a1-4)Glc = molecular target: Glc(a1-4)Glc
# Outline: as §1
# [2] = molecular target: Glc(a1-4)Glc(a1-4)Glc(a1-4)Glc
# Outline: as §1
# Glc(a1-6)Glc(a1-6)Glc = molecular target: Glc(a1-6)Glc(a1-6)Glc
# Outline: as §1
# [3] = molecular target: Glc(a1-6)Glc(a1-6)Glc(a1-6)Glc
# Outline: as §1
# Glc(b1-4)Glc = molecular target: Glc(b1-4)Glc
# Outline: as §1
# Glc(b1-6)Glc = molecular target: Glc(b1-6)Glc
# Outline: as §1
# GlcA(b1-3)Gal = molecular target: GlcA(b1-3)Gal
# Outline: as §1
# GlcA(b1-3)GlcNAc = molecular target: GlcA(b1-3)GlcNAc
# Outline: as §1
# GlcA(b1-6)Gal = molecular target: GlcA(b1-6)Gal
# Outline: as §1
# [4] = molecular target: GlcA3S(b1-3)Gal(b1-4)GlcNAc(b1-2)Man
# Outline: as §1
# [5] = molecular target: GlcA3S(b1-3)Gal(b1-4)GlcNAc(b1-3)Gal(b1-4)Glc
# Outline: as §1
# [6] = molecular target: GlcNAc(a1-3)Gal(b1-4)GlcNAc
# Outline: as §1
# [7] = molecular target: GlcNAc(a1-4)Gal(b1-3)GlcNAc
# Outline: as §1
# [8] = molecular target: GlcNAc(a1-4)Gal(b1-4)GalNAc
# Outline: as §1
# [9] = molecular target: GlcNAc(a1-4)Gal(b1-4)GlcNAc
# Outline: as §1
# [10] = molecular target: GlcNAc(a1-4)Gal(b1-4)GlcNAc(b1-3)Gal(b1-4)Glc
# Outline: as §1
# [11] = molecular target: GlcNAc(a1-4)Gal(b1-4)GlcNAc(b1-3)Gal(b1-4)GlcNAc
# Outline: as §1
# [12] = molecular target: GlcNAc(a1-4)Gal(b1-4)GlcNAc(b1-3)Gal(b1-4)GlcNAc(b1-3)Gal(b1-4)GlcNAc
# Outline: as §1
# [13] = molecular target: GlcNAc(a1-4)Gal(b1-4)GlcNAc(b1-3)Gal(b1-4)[Fuc(a1-3)]GlcNAc(b1-3)Gal(b1-4)[Fuc(a1-3)]GlcNAc
# Outline: as §1
# [14] = molecular target: GlcNAc(a1-6)Gal(b1-4)GlcNAc
# Outline: as §1
# [15] = molecular target: GlcNAc(b1-2)Gal(b1-3)GalNAc
# Outline: as §1
# [16] = molecular target: GlcNAc(b1-2)Man(a1-3)[GlcNAc(b1-2)Man(a1-6)]Man(b1-4)GlcNAc(b1-4)GlcNAc
# Outline: as §1
# [17] = molecular target: GlcNAc(b1-2)Man(a1-3)[GlcNAc(b1-2)Man(a1-6)]Man(b1-4)GlcNAc(b1-4)[Fuc(a1-6)]GlcNAc
# Outline: as §1
# [18] = molecular target: GlcNAc(b1-2)Man(a1-3)[GlcNAc(b1-4)][GlcNAc(b1-2)Man(a1-6)]Man(b1-4)GlcNAc(b1-4)GlcNAc
# Outline: as §1
# [19] = molecular target: GlcNAc(b1-2)Man(a1-3)[GlcNAc(b1-4)][GlcNAc(b1-2)Man(a1-6)]Man(b1-4)GlcNAc(b1-4)[Fuc(a1-6)]GlcNAc
# Outline: as §1
# [20] = molecular target: GlcNAc(b1-2)[GlcNAc(b1-4)]Man(a1-3)[GlcNAc(b1-2)Man(a1-6)]Man(b1-4)GlcNAc(b1-4)GlcNAc
# Outline: as §1
# [21] = molecular target: GlcNAc(b1-2)[GlcNAc(b1-4)]Man(a1-3)[GlcNAc(b1-4)][GlcNAc(b1-2)Man(a1-6)]Man(b1-4)GlcNAc(b1-4)GlcNAc
# Outline: as §1
# [22] = molecular target: GlcNAc(b1-2)[GlcNAc(b1-4)]Man(a1-3)[GlcNAc(b1-4)][GlcNAc(b1-2)[GlcNAc(b1-6)]Man(a1-6)]Man(b1-4)GlcNAc(b1-4)GlcNAc
# Outline: as §1
# [23] = molecular target: GlcNAc(b1-2)[GlcNAc(b1-4)]Man(a1-3)[GlcNAc(b1-4)][GlcNAc(b1-2)[GlcNAc(b1-6)]Man(a1-6)]Man(b1-4)GlcNAc(b1-4)[Fuc(a1-6)]GlcNAc
# Outline: as §1
# [24] = molecular target: GlcNAc(b1-2)[GlcNAc(b1-6)]Man(a1-6)[GlcNAc(b1-2)Man(a1-3)]Man(b1-4)GlcNAc(b1-4)GlcNAc
# Outline: as §1
# [25] = molecular target: GlcNAc(b1-2)[GlcNAc(b1-6)]Man(a1-6)[GlcNAc(b1-2)Man(a1-3)]Man(b1-4)GlcNAc(b1-4)[Fuc(a1-6)]GlcNAc
# Outline: as §1
# [26] = molecular target: GlcNAc(b1-2)[GlcNAc(b1-6)]Man(a1-6)[GlcNAc(b1-4)][GlcNAc(b1-2)Man(a1-3)]Man(b1-4)GlcNAc(b1-4)GlcNAc
# Outline: as §1
# GlcNAc(b1-3)Fuc = molecular target: GlcNAc(b1-3)Fuc
# Outline: as §1
# GlcNAc(b1-3)Gal = molecular target: GlcNAc(b1-3)Gal
# Outline: as §1
# [27] = molecular target: GlcNAc(b1-3)Gal(b1-3)GalNAc
# Outline: as §1
binder,measurement,setting,value
B1,glycan array binding signal (z-score),[1],-0.308
same,glycan array binding signal (z-score),GalNAc4S6S(b1-4)GlcNAc,-0.304
same,glycan array binding signal (z-score),GalNAc6S(b1-4)GlcNAc,4
same,glycan array binding signal (z-score),Glc(a1-4)Glc,-0.253
same,glycan array binding signal (z-score),[2],-0.302
same,glycan array binding signal (z-score),Glc(a1-6)Glc(a1-6)Glc,-0.276
same,glycan array binding signal (z-score),[3],-0.298
same,glycan array binding signal (z-score),Glc(b1-4)Glc,-0.263
same,glycan array binding signal (z-score),Glc(b1-6)Glc,-0.189
same,glycan array binding signal (z-score),GlcA(b1-3)Gal,-0.309
same,glycan array binding signal (z-score),GlcA(b1-3)GlcNAc,-0.25
same,glycan array binding signal (z-score),GlcA(b1-6)Gal,-0.28
same,glycan array binding signal (z-score),[4],-0.309
same,glycan array binding signal (z-score),[5],-0.088
same,glycan array binding signal (z-score),[6],-0.294
same,glycan array binding signal (z-score),[7],-0.3
same,glycan array binding signal (z-score),[8],-0.304
same,glycan array binding signal (z-score),[9],-0.312
same,glycan array binding signal (z-score),[10],-0.312
same,glycan array binding signal (z-score),[11],-0.311
same,glycan array binding signal (z-score),[12],-0.305
same,glycan array binding signal (z-score),[13],-0.161
same,glycan array binding signal (z-score),[14],-0.276
same,glycan array binding signal (z-score),[15],-0.285
same,glycan array binding signal (z-score),[16],-0.288
same,glycan array binding signal (z-score),[17],-0.26
same,glycan array binding signal (z-score),[18],-0.303
same,glycan array binding signal (z-score),[19],-0.311
same,glycan array binding signal (z-score),[20],-0.301
same,glycan array binding signal (z-score),[21],-0.278
same,glycan array binding signal (z-score),[22],-0.302
same,glycan array binding signal (z-score),[23],-0.313
same,glycan array binding signal (z-score),[24],-0.297
same,glycan array binding signal (z-score),[25],-0.298
same,glycan array binding signal (z-score),[26],-0.311
same,glycan array binding signal (z-score),GlcNAc(b1-3)Fuc,-0.311
same,glycan array binding signal (z-score),GlcNAc(b1-3)Gal,-0.306
same,glycan array binding signal (z-score),[27],-0.296
